# In the supplement of paper PMC8728848:
# The other results are listed elsewhere or left out.
# Columns and labels:
# Assay in all cases: glycan array binding signal (z-score within array); higher = stronger binding
# Settings in all cases: glycan notation: IUPAC condensed, linker removed
# [1] = molecular target: Fuc(a1-2)Gal(b1-4)[Fuc(a1-3)]GlcNAc
# In short: (§1)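 Negative Z-scores can be read as non-binding. The Z-score is calculated within each array and then averaged across arrays of one protein sequence at different concentrations or buffers and across linkers. Arrays, 3228 in all, were curated from the Consortium for Functional Glycomics database and kept only where the protein sequence was available.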
# [2] = molecular target: Fuc(a1-2)Gal(b1-4)[Fuc(a1-3)]GlcNAc(b1-2)Man(a1-3)[Fuc(a1-2)Gal(b1-4)[Fuc(a1-3)]GlcNAc(b1-2)Man(a1-6)]Man(b1-4)GlcNAc(b1-4)GlcNAc
# In short: as §1
# [3] = molecular target: Fuc(a1-2)Gal(b1-4)[Fuc(a1-3)]GlcNAc(b1-2)[Fuc(a1-2)Gal(b1-4)[Fuc(a1-3)]GlcNAc(b1-4)]Man(a1-3)[Fuc(a1-2)Gal(b1-4)[Fuc(a1-3)]GlcNAc(b1-2)Man(a1-6)]Man(b1-4)GlcNAc(b1-4)GlcNAc
# In short: as §1
# [4] = molecular target: Fuc(a1-2)Gal(b1-4)[Fuc(a1-3)]GlcNAc(b1-3)Gal(b1-4)[Fuc(a1-3)]GlcNAc
# In short: as §1
# [5] = molecular target: Fuc(a1-2)Gal(b1-4)[Fuc(a1-3)]GlcNAc(b1-3)Gal(b1-4)[Fuc(a1-3)]GlcNAc(b1-3)Gal(b1-4)[Fuc(a1-3)]GlcNAc
# In short: as §1
# [6] = molecular target: Fuc(a1-2)Gal(b1-4)[Fuc(a1-3)]GlcNAc(b1-3)GalNAc
# In short: as §1
# Fuc(a1-2)Gal6S(b1-4)Glc = molecular target: Fuc(a1-2)Gal6S(b1-4)Glc
# In short: as §1
# [7] = molecular target: Fuc(a1-2)Gal6S(b1-4)Glc6S
# In short: as §1
# [8] = molecular target: Fuc(a1-2)Gal6S(b1-4)GlcNAc
# In short: as §1
# Fuc(a1-2)[Gal(a1-3)]Gal = molecular target: Fuc(a1-2)[Gal(a1-3)]Gal
# In short: as §1
# [9] = molecular target: Fuc(a1-2)[Gal(a1-3)]Gal(b1-3)GalNAc
# In short: as §1
# [10] = molecular target: Fuc(a1-2)[Gal(a1-3)]Gal(b1-3)GlcNAc
# In short: as §1
# [11] = molecular target: Fuc(a1-2)[Gal(a1-3)]Gal(b1-3)GlcNAc(b1-2)Man(a1-3)[Fuc(a1-2)[Gal(a1-3)]Gal(b1-3)GlcNAc(b1-2)Man(a1-6)]Man(b1-4)GlcNAc(b1-4)GlcNAc
# In short: as §1
# [12] = molecular target: Fuc(a1-2)[Gal(a1-3)]Gal(b1-3)GlcNAc(b1-2)Man(a1-3)[Fuc(a1-2)[Gal(a1-3)]Gal(b1-3)GlcNAc(b1-2)Man(a1-6)]Man(b1-4)GlcNAc(b1-4)[Fuc(a1-6)]GlcNAc
# In short: as §1
# [13] = molecular target: Fuc(a1-2)[Gal(a1-3)]Gal(b1-3)GlcNAc(b1-3)GalNAc
# In short: as §1
# [14] = molecular target: Fuc(a1-2)[Gal(a1-3)]Gal(b1-4)Glc
# In short: as §1
# [15] = molecular target: Fuc(a1-2)[Gal(a1-3)]Gal(b1-4)GlcNAc
# In short: as §1
# [16] = molecular target: Fuc(a1-2)[Gal(a1-3)]Gal(b1-4)GlcNAc(b1-2)Man(a1-3)[Fuc(a1-2)[Gal(a1-3)]Gal(b1-4)GlcNAc(b1-2)Man(a1-6)]Man(b1-4)GlcNAc(b1-4)GlcNAc
# In short: as §1
# [17] = molecular target: Fuc(a1-2)[Gal(a1-3)]Gal(b1-4)GlcNAc(b1-2)Man(a1-3)[Fuc(a1-2)[Gal(a1-3)]Gal(b1-4)GlcNAc(b1-2)Man(a1-6)]Man(b1-4)GlcNAc(b1-4)[Fuc(a1-6)]GlcNAc
# In short: as §1
# [18] = molecular target: Fuc(a1-2)[Gal(a1-3)]Gal(b1-4)GlcNAc(b1-3)GalNAc
# In short: as §1
# [19] = molecular target: Fuc(a1-2)[Gal(a1-3)]Gal(b1-4)[Fuc(a1-3)]Glc
# In short: as §1
# [20] = molecular target: Fuc(a1-2)[Gal(a1-3)]Gal(b1-4)[Fuc(a1-3)]GlcNAc
# In short: as §1
# [21] = molecular target: Fuc(a1-2)[Gal(a1-3)]Gal(b1-4)[Fuc(a1-3)]GlcNAc(b1-3)GalNAc
# In short: as §1
# [22] = molecular target: Fuc(a1-2)[Gal(a1-4)]Gal(b1-4)GlcNAc
# In short: as §1
# [23] = molecular target: Fuc(a1-2)[GalNAc(a1-3)]Gal
# In short: as §1
# [24] = molecular target: Fuc(a1-2)[GalNAc(a1-3)]Gal(b1-3)GalNAc(a1-3)[Fuc(a1-2)]Gal(b1-4)GlcNAc
# In short: as §1
# [25] = molecular target: Fuc(a1-2)[GalNAc(a1-3)]Gal(b1-3)GlcNAc
# In short: as §1
# [26] = molecular target: Fuc(a1-2)[GalNAc(a1-3)]Gal(b1-3)GlcNAc(b1-2)Man(a1-3)[Fuc(a1-2)[GalNAc(a1-3)]Gal(b1-3)GlcNAc(b1-2)Man(a1-6)]Man(b1-4)GlcNAc(b1-4)GlcNAc
# In short: as §1
# [27] = molecular target: Fuc(a1-2)[GalNAc(a1-3)]Gal(b1-3)GlcNAc(b1-2)Man(a1-3)[Fuc(a1-2)[GalNAc(a1-3)]Gal(b1-3)GlcNAc(b1-2)Man(a1-6)]Man(b1-4)GlcNAc(b1-4)[Fuc(a1-6)]GlcNAc
# In short: as §1
# [28] = molecular target: Fuc(a1-2)[GalNAc(a1-3)]Gal(b1-3)GlcNAc(b1-3)GalNAc
# In short: as §1
# [29] = molecular target: Fuc(a1-2)[GalNAc(a1-3)]Gal(b1-4)Glc
# In short: as §1
# [30] = molecular target: Fuc(a1-2)[GalNAc(a1-3)]Gal(b1-4)GlcNAc
# In short: as §1
# [31] = molecular target: Fuc(a1-2)[GalNAc(a1-3)]Gal(b1-4)GlcNAc(b1-2)Man(a1-3)[Fuc(a1-2)[GalNAc(a1-3)]Gal(b1-4)GlcNAc(b1-2)Man(a1-6)]Man(b1-4)GlcNAc(b1-4)GlcNAc
# In short: as §1
# [32] = molecular target: Fuc(a1-2)[GalNAc(a1-3)]Gal(b1-4)GlcNAc(b1-2)Man(a1-3)[Fuc(a1-2)[GalNAc(a1-3)]Gal(b1-4)GlcNAc(b1-2)Man(a1-6)]Man(b1-4)GlcNAc(b1-4)[Fuc(a1-6)]GlcNAc
# In short: as §1
# [33] = molecular target: Fuc(a1-2)[GalNAc(a1-3)]Gal(b1-4)GlcNAc(b1-3)Gal(b1-4)GlcNAc
# In short: as §1
# [34] = molecular target: Fuc(a1-2)[GalNAc(a1-3)]Gal(b1-4)GlcNAc(b1-3)Gal(b1-4)GlcNAc(b1-3)Gal(b1-4)GlcNAc
# In short: as §1
# [35] = molecular target: Fuc(a1-2)[GalNAc(a1-3)]Gal(b1-4)GlcNAc(b1-3)GalNAc
# In short: as §1
# [36] = molecular target: Fuc(a1-2)[GalNAc(a1-3)]Gal(b1-4)[Fuc(a1-3)]GlcNAc
# In short: as §1
# [37] = molecular target: Fuc(a1-2)[GalNAc(a1-3)]Gal(b1-4)[Fuc(a1-3)]GlcNAc(b1-3)GalNAc
# In short: as §1
# [38] = molecular target: Fuc(a1-2)[GalNAc(a1-4)]Gal(b1-4)GlcNAc
# In short: as §1
# [39] = molecular target: Fuc(a1-2)[GalNAc(b1-3)]Gal
# In short: as §1
# Fuc(a1-3)GlcNAc = molecular target: Fuc(a1-3)GlcNAc
# In short: as §1
# [40] = molecular target: Fuc(a1-3)[Gal(b1-4)]Glc6S
# In short: as §1
# [41] = molecular target: Fuc(a1-3)[Gal(b1-4)]GlcNAc
# In short: as §1
# [42] = molecular target: Fuc(a1-3)[Gal(b1-4)]GlcNAc(b1-2)Man(a1-3)[Fuc(a1-3)[Gal(b1-4)]GlcNAc(b1-2)Man(a1-6)]Man(b1-4)GlcNAc(b1-4)GlcNAc
# In short: as §1
binder,measurement,setting,value
"CV-2L (Chromobacterium violaceum), Q7NX84 (protein) MAQQGVFTLPARINFGVTVLVNSAATQHVEIFVDNEPRAAFSGVGTGDNNLGTKVINSGSGNVRVQITANGRQSDLVSSQLVLANKLNLAVVGSEDGTDMDYNDSIVILNWPLG",glycan array binding signal (z-score),[1],0.928
same,glycan array binding signal (z-score),[2],-0.31
same,glycan array binding signal (z-score),[3],-0.097
same,glycan array binding signal (z-score),[4],1.15
same,glycan array binding signal (z-score),[5],1.04
same,glycan array binding signal (z-score),[6],-0.3
same,glycan array binding signal (z-score),Fuc(a1-2)Gal6S(b1-4)Glc,3
same,glycan array binding signal (z-score),[7],4.37
same,glycan array binding signal (z-score),[8],3.31
same,glycan array binding signal (z-score),Fuc(a1-2)[Gal(a1-3)]Gal,-0.256
same,glycan array binding signal (z-score),[9],-0.335
same,glycan array binding signal (z-score),[10],-0.322
same,glycan array binding signal (z-score),[11],-0.292
same,glycan array binding signal (z-score),[12],-0.09
same,glycan array binding signal (z-score),[13],-0.351
same,glycan array binding signal (z-score),[14],-0.344
same,glycan array binding signal (z-score),[15],-0.342
same,glycan array binding signal (z-score),[16],-0.33
same,glycan array binding signal (z-score),[17],-0.257
same,glycan array binding signal (z-score),[18],-0.331
same,glycan array binding signal (z-score),[19],-0.019
same,glycan array binding signal (z-score),[20],-0.313
same,glycan array binding signal (z-score),[21],-0.294
same,glycan array binding signal (z-score),[22],-0.086
same,glycan array binding signal (z-score),[23],-0.2
same,glycan array binding signal (z-score),[24],-0.34
same,glycan array binding signal (z-score),[25],-0.347
same,glycan array binding signal (z-score),[26],-0.316
same,glycan array binding signal (z-score),[27],-0.083
same,glycan array binding signal (z-score),[28],-0.293
same,glycan array binding signal (z-score),[29],-0.309
same,glycan array binding signal (z-score),[30],-0.34
same,glycan array binding signal (z-score),[31],-0.325
same,glycan array binding signal (z-score),[32],-0.222
same,glycan array binding signal (z-score),[33],0.184
same,glycan array binding signal (z-score),[34],-0.266
same,glycan array binding signal (z-score),[35],-0.34
same,glycan array binding signal (z-score),[36],-0.059
same,glycan array binding signal (z-score),[37],-0.328
same,glycan array binding signal (z-score),[38],0.033
same,glycan array binding signal (z-score),[39],-0.332
same,glycan array binding signal (z-score),Fuc(a1-3)GlcNAc,1.49
same,glycan array binding signal (z-score),[40],0.315
same,glycan array binding signal (z-score),[41],-0.156
same,glycan array binding signal (z-score),[42],-0.265
